{"source": "patent US20240238459A1", "about": "“Granzyme-Activatable Membrane-Interacting Peptides and Methods of Use” (priority 2021, published 2024)", "test_system": "virus", "assay": "PET and biodistribution in viral pneumonia model", "conditions": "10 days post infection, 6 hours post radiotracer injection, vs sham", "description": "It was next evaluated whether ^64Cu-GRIP B PET can detect a productive immune response in a pneumonia model. In collaboration with the Looney lab at UCSF, mice received an intranasal instillation of virus or sham, and were imaged with ^64Cu-GRIP B at 10 days post infection (the time point at which peak recruitment of T cells to the lungs occurs). […] Moreover, high tracer uptake was noted on PET in other organs, for example the liver (*P<0.01). This unexpected finding led to a biodistribution study in lungs and other organs. […] Currently, granzyme B expression in these tissues is being confirmed using autoradiography and IF, and control studies (D-amino acid probe, imaging in germline granzyme B knockout mice) are being performed to confirm the pathogen induced changes in tracer biodistribution are driven by granzyme B.", "note": "Peptide text beside a SMILES is read from it. * marks the point of attachment. DOTA = O=C(O)CN1CCN(CC(=O)O)CCN(CC(=O)*)CCN(CC(=O)O)CC1; Ahx = NCCCCCC(=O)O"}
{"smiles": "CC[C@H](C)[C@H](NC(=O)[C@H](CCCCN)NC(=O)CNC(=O)[C@H](CC(C)C)NC(=O)[C@H](Cc1ccccc1)NC(=O)[C@H](CCCCN)NC(=O)[C@H](CO)NC(=O)[C@H](Cc1ccccc1)NC(=O)[C@H](Cc1c[nH]c2ccccc12)NC(=O)[C@H](CCC(N)=O)NC(=O)[C@@H](NC(=O)[C@H](Cc1ccccc1)NC(=O)CCCCCNC(=O)CN1CCN(CC(=O)O)CCN(CC(=O)O)CCN(CC(=O)O)CC1)C(C)C)C(=O)N[C@@H](CCC(=O)O)C(=O)N1CCC[C@H]1C(=O)N[C@@H](CC(=O)O)C(=O)N[C@H](C(=O)N[C@@H](CO)C(=O)N[C@@H](CCC(N)=O)C(=O)N[C@H](C(=O)N[C@@H](CCC(N)=O)C(=O)N[C@@H](CC(=O)O)C(=O)N1CCC[C@H]1C(=O)N[C@@H](CC(N)=O)C(=O)N[C@@H](CC(=O)O)C(=O)N[C@@H](CCC(N)=O)C(=O)N[C@@H](Cc1ccc(O)cc1)C(=O)N[C@@H](CCC(=O)O)C(=O)N1CCC[C@H]1C(=O)N[C@@H](Cc1ccccc1)C(=O)O)C(C)C)C(C)C", "note": "[^64Cu-GRIP B, metal not drawn] ({DOTA-Ahx}-FVQWFSKFLGKIEPDVSQVQDPNDQYEPF-OH)", "values": [{"measurement": "radiotracer uptake in infected lungs", "result": "very high and significantly different than healthy lungs"}]}
